Some of the results follow. At the low end of the ranking the order means little.
Each sequence was assayed against T1, GST-Rok-C97-191 (UniProt O34857) (assay: protein binding microarray). Conditions: Rok is a gene silencer of Bacillus subtilis; high values mean tight binding; most listed sequences are background and not binding sites; double strand, one strand shown.
T1 sequence: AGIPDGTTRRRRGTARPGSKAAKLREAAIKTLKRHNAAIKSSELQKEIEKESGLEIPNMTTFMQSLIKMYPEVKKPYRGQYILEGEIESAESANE
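Further: rank score from −0.5 (least bound) to 0.5 (best bound).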

| Sequence | binding signal [E-score] |
| --- | --- |
| ACAATATC | 0.0821 |
| ACTGTGAA | 0.0664 |
| CAAACAAG | -0.215 |
| GGAGCGAA | -0.219 |
| ACGAAAAA | -0.0149 |
| CTTCCAAC | -0.19 |
| AATAGCAA | 0.152 |
| ACCTGTAC | 0.0103 |
| AACTTGAG | 0.0682 |
| GCTTCTAC | 0.268 |
| AATCCAAA | -0.0669 |
| ACTGTGGA | -0.0198 |
| CCGAGTCC | -0.192 |
| AACATGCT | -0.0794 |
| GAATGGTC | -0.121 |
| CACTCGCC | -0.331 |
| GTCGGAAA | -0.183 |
| GGTCCACC | -0.317 |
| CTTGGTCA | -0.124 |
| ATTGTTCC | 0.0563 |
| AGGTCCCA | -0.198 |
| AACTGCTT | 0.0877 |
| ACCCTAGG | -0.16 |
| ACGCGAGT | -0.13 |
| CGCGCGCC | -0.303 |

| Sequence | binding signal [E-score] |
| --- | --- |
| CCTTAGAC | -0.116 |
| CACTGCAA | -0.0443 |
| CAACAACG | -0.0212 |
| AAGAAGCG | -0.218 |
| TATGTAGA | 0.276 |
| CCAAAAAC | 0.0489 |
| AAAAAACG | 0.0416 |
| TAGTAACA | 0.345 |
| CTAGTATC | 0.111 |
| ATAGATTA | 0.331 |
| ATCAACAG | 0.18 |
| GCGCGTCA | -0.288 |
| ACGCTGAA | -0.00639 |
| AGCACACA | -0.174 |
| AATAACCC | -0.0587 |
| ATATTCCA | 0.198 |
| CAACTGGC | -0.253 |
| GACTTAGC | -0.0763 |
| GGGGAACA | 0.0681 |
| AACGCGAT | 0.0148 |
| CGTTGAAG | 0.0217 |
| CTCCGCCC | -0.339 |
| CAAGCCTG | -0.132 |
| AGTGCACT | 0.024 |
| ATGGCATG | -0.113 |

| Sequence | binding signal [E-score] |
| --- | --- |
| CGTTAGCA | -0.205 |
| GGCGAGAC | -0.266 |
| CCACACCA | 0.0485 |
| GCTCCCGA | -0.201 |
| ACCGAAAG | -0.159 |
| GACGTGCC | -0.347 |
| CACGAACA | -0.0928 |
| ATCACAGG | -0.135 |
| AGACTTAG | -0.0257 |
| AGGGTGGG | -0.125 |
| CTTTAACA | 0.072 |
| CGGTCAAA | 0.0606 |
| ACAGGATC | -0.0138 |
| ATTGATGC | -0.0432 |
| AATGATTC | 0.0669 |
| CCTGCCCA | -0.371 |
| CTCCGCAA | -0.13 |
| GATGTCCC | -0.267 |
| AGATGATC | -0.126 |
| ACAGCCGA | -0.00523 |
| CGCTTTGA | -0.0415 |
| TACTGGCA | 0.0047 |
| AGGAGTAA | -0.0565 |
| TATTACGA | 0.252 |
| ATTCATTC | 0.033 |

| Sequence | binding signal [E-score] |
| --- | --- |
| GTCTGGTA | 0.0399 |
| AATAAGCA | 0.0965 |
| CGCTTGCA | -0.261 |
| CATTCACG | 0.00676 |
| AAGGAAAG | -0.284 |
| CACGCCGG | -0.382 |
| ATGATAAC | 0.174 |
| GGAGTGTA | 0.029 |
| GGCGGTAC | -0.0765 |
| CCCATGGA | -0.24 |
| ACGACTGA | -0.0257 |
| AGCAGGTC | -0.196 |
| CACGGCCC | -0.408 |
| GTCCTTTA | -0.181 |
| CTGGATCA | -0.00588 |
| AAGCGCTG | 0.0428 |
| ATTAATAC | 0.335 |
| TGGTCCAA | -0.175 |
| GACTCAGC | -0.158 |
| GTCCGAAA | 0.0712 |
| GCGCCCCC | -0.301 |
| GAGAATAC | 0.163 |
| CAAGACTG | -0.0131 |
| GATCGTGC | -0.0453 |
| ATATACGG | 0.218 |

| Sequence | binding signal [E-score] |
| --- | --- |
| ATCTCACA | 0.0535 |
| AGAATATG | 0.268 |
| AGTCAGGC | -0.084 |
| CTGCGCAG | -0.0762 |
| CTCACGAC | -0.125 |
| CAGACCCA | 0.0335 |
| AGTTGGTG | 0.00668 |
| AAGCGCGT | -0.151 |
| GATACACA | 0.228 |
| CGACAGGC | -0.362 |
| CGTTCGCC | -0.124 |
| ACAGGTTC | -0.0931 |
| AGGTTTGG | 0.0727 |
| CCCCACCG | -0.267 |
| ATTAAGTG | 0.16 |
| CCCCCATA | -0.212 |
| GACTCCAC | -0.29 |
| GATCCTAC | 0.103 |
| ATAGATAA | 0.325 |
| TGCGTCAA | -0.0045 |
| AGCACCGC | -0.0541 |
| CTCGGGAA | 0.0169 |
| AACAGCCT | -0.182 |
| CGACGCCA | -0.216 |
| CATAGCTC | 0.00142 |

| Sequence | binding signal [E-score] |
| --- | --- |
| AGCCAATC | -0.0858 |
| CACGTAGC | 0.0195 |
| CGAACGAA | -0.11 |
| ATTTTTTG | 0.0872 |
| CCACAAGC | -0.034 |
| GTACCAAA | 0.0172 |
| GACGCGGA | -0.0842 |
| TTATATAA | 0.384 |
| GCGACTCA | -0.0909 |
| AAGTACCC | 0.124 |
| CCTACCCC | -0.147 |
| ATTGCGAC | 0.173 |
| CTACCCAC | -0.0303 |
| ATGAATAC | 0.036 |
| TAAATTCA | 0.288 |
| GATGATGA | -0.0239 |
| GCGTCTTA | -0.0438 |
| AATTGGCA | -0.0144 |
| GCGTCCGA | -0.026 |
| GACGTCCA | -0.247 |
| CGATATCA | 0.109 |
| AGCGGCCG | -0.112 |
| GCGCTCTA | 0.0916 |
| CCATCCCG | -0.0704 |
| AGACGCAA | -0.122 |

| Sequence | binding signal [E-score] |
| --- | --- |
| CATGCAAG | -0.0362 |
| CATGCATA | 0.071 |
| AAGTCTGG | -0.0849 |
| AGGTCGTC | -0.183 |
| CCTTTTAA | -0.0834 |
| GAAAGCAA | -0.112 |
| CTTCTCAA | 0.00407 |
| AAGAGTAG | 0.212 |
| AAGTCGGA | -0.121 |
| ACTCGCTA | 0.00406 |
| GCGCCACC | -0.169 |
| ATCTAGGC | 0.0159 |
| GATACCCC | -0.11 |
| ATTGCAGA | -0.151 |
| ATGCGGGC | -0.167 |
| GTAATTAC | 0.43 |
| CTCGCGAG | -0.0756 |
| GAATGAGC | -0.132 |
| CTTCATCA | -0.0875 |
| GGATAACC | -0.0647 |
| ATCCTTCA | -0.078 |
| AGAAGTGG | -0.102 |
